The other results are listed elsewhere or left out.
B1: chr3:58171454:58171555:+|3pUTR|ENSG00000136068|msi1|FALSE|unique (ssRNA)
RNA: GGGAGUUCUACAGUCCGACGAUCGGUGAUUAUUUCUUGCAGAAUCACCACACGAGACCAUCCCGGCAGUCAUGGUUUUGCUUUAGUUUUCCAAGUCCGUUUCAGUCCCUUCCUUGGUCUGAAGAAAUUCUGCAGUGGCGAGCACAACAGAGGAUUGAGCAUCA
B2: chr9:133763799:133763900:-|3pUTR|ENSG00000160293|msi1|FALSE|unique (ssRNA)
RNA: GGGAGUUCUACAGUCCGACGAUCCGAACCGUUUCACUGUCAGCCUGCCCUCGGCGACCCAUCACUGGGUAUGCUAUUGUACAUAGAGGAAACCUGGGCUAGCCCCACCCAGAGCGCAGAGGAGGGGGCACCGACAGCGCUGCGCAACAGAGGAUUGAGCAUCA
B3: chr1:86742159:86742388:+|CDS|ENSG00000097033|unk|FALSE|bound_elsewhere (ssRNA)
RNA: GGGAGUUCUACAGUCCGACGAUCUGUACCAUCAGUUUUACCAAAUGCGAUUGGUUCUUCUGCCAUGGCUUCAACAAGUGGCCUAGUAAUCACCUCUCCUUCCAACCUCAGUGACCUUAAGGAGUGUAGUGGCAGCAGAAAGGCCAACAGAGGAUUGAGCAUCA
B4: ENSG00000070961:be:win_4501|3pUTR|ENSG00000070961|bound_else_gene|NA|bound_elsewhere_windowed (ssRNA)
RNA: GGGAGUUCUACAGUCCGACGAUCCCUUUUGUUCAGAAUUUAGUAGAUUGUUUAAUGCAGGACAUCAACUACAUAAUGAAAGAUGCUUGAAAUGCUUUUGUUAUUUCAGGCAAAUCAAAUUAAAUCAGACUAUCAAACUACAAGCAACAGAGGAUUGAGCAUCA
B5: ENSG00000169710:stop:overlap|stop_codon|ENSG00000169710|stop_codon|NA|stop_codon (ssRNA)
RNA: GGGAGUUCUACAGUCCGACGAUCCCAUCAUCAGCAUCAUCCACAGCUCCCUGGCUGAGCCACGCGUGAGCGUGCGGGAGGGCUAGGCCCGUGCCCCCGCCUGCCACCGGAGGUCACUCCACCAUCCCCACCCCACCCCACCCCCAACAGAGGAUUGAGCAUCA
B6: chr13:52036708:52036809:-|3pUTR|ENSG00000197168|unk|total|mutant (ssRNA)
RNA: GGGAGUUCUACAGUCCGACGAUCGCCGAACUUUUGAAUACCGCCAUUAAUAUUUUUACUUUAAAGUUUCUAUUAAGAAAUCUCCGGCCGGGCAGUCUCAUCACUUUGGGAGGCCAAGGCAGGCAGAUCAUGAGGUCAGGAGUUCAACAGAGGAUUGAGCAUCA
B7: chr17:35273046:35273147:+|3pUTR|ENSG00000166750|unk|FALSE|unique (ssRNA)
RNA: GGGAGUUCUACAGUCCGACGAUCAUUCCUAAGAGCAGAAGACUGCAAAAUAGUAAAUAUAUACCCAAAAGGGUCUAAUGGAUUAGUUUUUGGCAUAUCAGCACAUGAUAAUACUAUGAAGCCAUAAAAAAGAGAGAUCUCUAUCAACAGAGGAUUGAGCAUCA
B8: chr6:55753652:55755532:-|three_prime_utr|ENSG00000112175|control|control|control (ssRNA)
RNA: GGGAGUUCUACAGUCCGACGAUCUAAGGUUUAUGGCUGCAAUAAAAAGCAUACUUUCAGACAAACGGGGAAUUUCCUAAAAUUAGUCUGGCUCAUUUUGACUCUUUUCCUAUGUACAAUAUCAUGUAUAUAGUCAUUUUUAUUCAACAGAGGAUUGAGCAUCA
B9: chr3:11557766:11557867:-|3pUTR|ENSG00000144560|msi1|FALSE|unique (ssRNA)
RNA: GGGAGUUCUACAGUCCGACGAUCCUGGACUGCAGACUCUACCAAUCACGGGCAUUUUAUCUUCUCUGAACACUGCAGUUUGUUAGACUAGAGCUGAGGUUGGAGGAUUCCAUAGUGCUUUAAACGUGAUGCAUGUUUUAAUGGCAACAGAGGAUUGAGCAUCA
B10: chr3:185917260:185917361:-|3pUTR|ENSG00000136527|msi1|total|mutant (ssRNA)
RNA: GGGAGUUCUACAGUCCGACGAUCUGGCAAAAAGCAACAAUAAACAGUUUGAUUUUUACUUUUCUUUCUAACAUAUCAAUGCUCCGCAGAACUAUUCAGAUUGUCAGCCGUAAAUUUAAAGACAAAUGCCCGUUUUCCUCCAGUCAACAGAGGAUUGAGCAUCA
B11: chr7:32869766:32869881:-|CDS|ENSG00000170852|unk|total|mutant (ssRNA)
RNA: GGGAGUUCUACAGUCCGACGAUCAUGUACUGUUAUUUUCCAAGGUCUGACUCAUGGGCCGAAAUGGCCAUGAGACAGACCCGCCGGUCCUUUGCUUCAGCUGCAGCUUUUGGUGAUAAAAUUUUCUAUAUUGGAGGGUUGCAUCAACAGAGGAUUGAGCAUCA
B12: chr12:57626096:57626197:-|3pUTR|ENSG00000135454|msi1|total|mutant (ssRNA)
RNA: GGGAGUUCUACAGUCCGACGAUCGUGUCUCUGCAAUGCUGUGGGCACAAAAGAAGGGGCACCAGAGUCCCUGUGCAAACACCCCGACUCACUUCAUGGAUUCCAAAGCUCUCAGCUUCAUUUUAUCCGUUACGUCCGGUAAGGCAACAGAGGAUUGAGCAUCA
B13: chr2:42682433:42682535:+|CDS|ENSG00000057935|unk|total|mutant (ssRNA)
RNA: GGGAGUUCUACAGUCCGACGAUCUCACGCUAUGGAUACAUUGUACCGACACAGCUAUGAUUUGAGCAGUGCCAUCCGUGUCUCCGUACCACUCGGAGGACCUGUUUUAUGCAGAGAUGAAAUGGAGGAAUGGUCAGCCUCUGACAACAGAGGAUUGAGCAUCA
B14: chr4:55870735:55870847:+|CDS|ENSG00000090989|unk|FALSE|bound_elsewhere (ssRNA)
RNA: GGGAGUUCUACAGUCCGACGAUCGGCAUCUGAAAAACAAGUCAACAUCCUGAUGAAAUUGCUAGAUGAGGCUCUAAAGGAGGUAGAUCAGAUUGAAUUGAAACUGAGCAGUUAUGAGGAAAUGCUCCAAAGUGUAAAAGAACACAACAGAGGAUUGAGCAUCA
B15: chr10:113908677:113908778:+|3pUTR|ENSG00000196865|unk|FALSE|bound_elsewhere (ssRNA)
RNA: GGGAGUUCUACAGUCCGACGAUCAGCUAUGCUCCUUACUUACUUCUUUUAUUAUAAACAAAUUCCUUUGCUUUGGCUGAUACUAGCUGAGUCAUUGAUCAUCAUUGGUACCAUGAUAUUGUAAUCUAUGCUGCUAUUUGGCACCAACAGAGGAUUGAGCAUCA
B16: ENSG00000126524:stop:overlap|stop_codon|ENSG00000126524|stop_codon|NA|stop_codon (ssRNA)
RNA: GGGAGUUCUACAGUCCGACGAUCAGCUCAAGCCACUGAUCAAGGUCAUAGAAAGUGAAGAUUAUGGCCAACAGUUAGAAAUCUAGAGACGGAGUUUCACCGUGUUAGCCAGGACGGUCUUGAUCUCCUGACCUCAUGAUCCACCAACAGAGGAUUGAGCAUCA
B17: ENSG00000170113:stop:overlap|stop_codon|ENSG00000170113|stop_codon|NA|stop_codon (ssRNA)
RNA: GGGAGUUCUACAGUCCGACGAUCUGUUCAAAGAGUUCAAUUUCAACCUUGGGGAGAUGAACAAAUCUAAUAUGAAAACAGACUAGAUUGCAAUAGGAGCUUGGAUGGUUCGAGGAAUAGGCAUUGGAGGUGGUUUCUGGCCGUCAACAGAGGAUUGAGCAUCA
B18: chr12:7652437:7652835:-|CDS|ENSG00000111701|control|control|control (ssRNA)
RNA: GGGAGUUCUACAGUCCGACGAUCCUCCCAGGCUAUUAGAGAGUUUCUGAGUCGGCACCCUGGUGUGACUCUAGUGAUCUACGUAGCUCGGCUUUUUUGGCACAUGGAUCAACAAAAUCGGCAAGGUCUCAGGGACCUUGUUAACAACAGAGGAUUGAGCAUCA
B19: chr11:61403655:61403707:-|3pUTR|ENSG00000149532|msi1_unk|FALSE|overlapping (ssRNA)
RNA: GGGAGUUCUACAGUCCGACGAUCUGAAGUAACCAGGAGGAAUGGGGAAAGAAGCAAGUUGGGCAGGAUAUGGCCUACUUCCAUAGGCUUUUCUUUUUUCAGGUUUGAUGUAAGCAUGGGCUUACAUCCCCCAGGUACAUACUUCAACAGAGGAUUGAGCAUCA
B20: chr17:4948375:4948459:-|5pUTR_CDS|ENSG00000108518|msi1_unk|total|mutant (ssRNA)
RNA: GGGAGUUCUACAGUCCGACGAUCAGCCGAGGCAGCUCGAGCCCAGUCCGCGGCCCCAGCAGCAGCGCCGAGAGCAGCCCCAGCCGCAGCGCCAUGGCCGGGUGGAACGCCUACAUCGACAACCUCAUGGCGGACGGGACCUGUCAACAGAGGAUUGAGCAUCA
B21: chr17:1004907:1005008:-|3pUTR|ENSG00000159842|msi1|FALSE|unique (ssRNA)
RNA: GGGAGUUCUACAGUCCGACGAUCAAGAGGGGCCAGGCUUCCUGGAGGGUGACUGAUGUGGCCGAAGCAGGUGUCCAGGCAGGUAGGCUGCAGCCAGGAGCUCCCUGGCACCGCAGGACCUCGUGGUACUCUUGCCUUAGAUUUCAACAGAGGAUUGAGCAUCA
B22: ENSG00000011677:stop:overlap|stop_codon|ENSG00000011677|stop_codon|NA|stop_codon (ssRNA)
RNA: GGGAGUUCUACAGUCCGACGAUCUCUAUUGGGCCACAUAUGUCAACCGGGAGUCAGCUAUCAAGGGCAUGAUCCGCAAACAGUAGAUAGUGGUGGCAGUGCAGCAACCAGAGCACUGUAUACCCCGUGAAGCAUCCAGGCACCCAACAGAGGAUUGAGCAUCA

Each binder was assayed against MSI1 full-length (mouse, UniProt Q61474 1-362) (assay: nsRBNS (natural sequence RNA bind-n-seq); RBNS binding buffer (assumed for nsRBNS): 25 mM Tris pH 7.5, 150 mM KCl, 3 mM MgCl2, 0.01% Triton X-100, 500 ug/ml BSA, 20 U/ml SUPERase-In, 4 C; UNK is unkempt and MSI1 is Musashi-1; names of the RNAs are library labels; protein concentration not given here; high values mean tight binding).
Sequence of UniProt Q61474 (Q61474 whole entry): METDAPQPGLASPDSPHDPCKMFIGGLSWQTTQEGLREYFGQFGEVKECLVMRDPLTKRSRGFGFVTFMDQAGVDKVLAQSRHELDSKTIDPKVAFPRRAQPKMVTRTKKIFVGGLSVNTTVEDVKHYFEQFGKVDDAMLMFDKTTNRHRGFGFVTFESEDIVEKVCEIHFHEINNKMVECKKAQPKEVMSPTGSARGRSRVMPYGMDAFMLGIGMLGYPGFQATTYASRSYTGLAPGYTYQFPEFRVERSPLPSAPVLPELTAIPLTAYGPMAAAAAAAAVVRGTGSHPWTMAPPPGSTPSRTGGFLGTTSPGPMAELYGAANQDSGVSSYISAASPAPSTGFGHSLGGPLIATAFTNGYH

Row | Binder | binding signal
1 | B1 | 0.516 enrichment R
2 | B2 | 0.554 enrichment R
3 | B3 | 0.612 enrichment R
4 | B4 | 0.644 enrichment R
5 | B5 | 0.237 enrichment R
6 | B6 | 1.22 enrichment R
7 | B7 | 4.14 enrichment R
8 | B8 | 0.571 enrichment R
9 | B9 | 1.35 enrichment R
10 | B10 | 0.45 enrichment R
11 | B11 | 0.278 enrichment R
12 | B12 | 0.39 enrichment R
13 | B13 | 0.345 enrichment R
14 | B14 | 0.437 enrichment R
15 | B15 | 3.92 enrichment R
16 | B16 | 0.608 enrichment R
17 | B17 | 0.642 enrichment R
18 | B18 | 0.299 enrichment R
19 | B19 | 0.452 enrichment R
20 | B20 | 0.583 enrichment R
21 | B21 | 0.628 enrichment R
22 | B22 | 0.512 enrichment R

— PMC12136788
